Experimental data: PMC12820563
Some of the results follow. The list includes weakly bound sequences.

These sequences were tested against T1, MBP-FoxP3dN (UniProt Q99JB6) (assay: PD-seq (MBP pull-down with sequencing)). Details: 20 mM Tris-HCl pH 7.5, 100 mM NaCl, 1.5 mM MgCl2, 0.4 uM protein, 0.1 uM dsDNA library, 30 min, room temperature, amylose pull-down; high values mean tight binding; double strand, one strand shown.
T1 sequence: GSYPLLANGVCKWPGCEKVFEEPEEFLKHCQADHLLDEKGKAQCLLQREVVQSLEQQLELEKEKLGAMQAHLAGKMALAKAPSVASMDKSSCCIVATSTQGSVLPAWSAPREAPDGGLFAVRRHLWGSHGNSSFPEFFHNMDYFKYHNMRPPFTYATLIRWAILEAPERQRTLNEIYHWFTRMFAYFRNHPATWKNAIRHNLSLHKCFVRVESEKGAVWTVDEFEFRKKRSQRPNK
“GATGATTGTTCTCCCAGCTGATGAATTTGAGCCTTCGAGTAAACAAATTTTCCTAATCTTTCTGTTCAAGCGCCATCTAC” showed a binding signal (RPM ratio (pull-down/input)) of 1.85. “GATGATTGTTCTCCCAGCTGATGAATTATTAGTCTCGAGTAAACAAATTTTCCTAATCTTTCTGTTCAAGCGCCATCTAC” gave a binding signal (RPM ratio (pull-down/input)) of 1.02. “GATGATTGTTCTCCCAGCTGATGAATTCATAAGCTCGAGTAAACAAATTTTCCTAATCTTTCTGTTCAAGCGCCATCTAC” gave a binding signal (RPM ratio (pull-down/input)) of 0.294. Work on “GATGATTGTTCTCCCAGCTGATGAATTCAGGGTCTCGAGTAAACAAATTTTCCTAATCTTTCTGTTCAAGCGCCATCTAC” yielded a binding signal (RPM ratio (pull-down/input)) of 0.56. Work on “GATGATTGTTCTCCCAGCTGATGAATTCTGAAAATCGAGTAAACAAATTTTCCTAATCTTTCTGTTCAAGCGCCATCTAC” yielded a binding signal (RPM ratio (pull-down/input)) of 0.189. “GATGATTGTTCTCCCAGCTGATGAATTGCATCGGTCGAGTAAACAAATTTTCCTAATCTTTCTGTTCAAGCGCCATCTAC” was tested, and the binding signal (RPM ratio (pull-down/input)) was 1.43. In the case of “GATGATTGTTCTCCCAGCTGATGAATTCCAGGAATCGAGTAAACAAATTTTCCTAATCTTTCTGTTCAAGCGCCATCTAC”, the binding signal (RPM ratio (pull-down/input)) is reported as 0.154. Work on “GATGATTGTTCTCCCAGCTGATGAATTTACAAAATCGAGTAAACAAATTTTCCTAATCTTTCTGTTCAAGCGCCATCTAC” yielded a binding signal (RPM ratio (pull-down/input)) of 0.51. For “GATGATTGTTCTCCCAGCTGATGAATTCTTATTTTCGAGTAAACAAATTTTCCTAATCTTTCTGTTCAAGCGCCATCTAC”, the binding signal (RPM ratio (pull-down/input)) was 0.818. “GATGATTGTTCTCCCAGCTGATGAATTCGTCTCTTCGAGTAAACAAATTTTCCTAATCTTTCTGTTCAAGCGCCATCTAC” showed a binding signal (RPM ratio (pull-down/input)) of 0.526. “GATGATTGTTCTCCCAGCTGATGAATTGCTAACATCGAGTAAACAAATTTTCCTAATCTTTCTGTTCAAGCGCCATCTAC” showed a binding signal (RPM ratio (pull-down/input)) of 1.09. “GATGATTGTTCTCCCAGCTGATGAATTAGGCTGCTCGAGTAAACAAATTTTCCTAATCTTTCTGTTCAAGCGCCATCTAC” was tested, and the binding signal (RPM ratio (pull-down/input)) was 0.639. Sequence “GATGATTGTTCTCCCAGCTGATGAATTGCGGAGCTCGAGTAAACAAATTTTCCTAATCTTTCTGTTCAAGCGCCATCTAC” has a binding signal (RPM ratio (pull-down/input)) of 0.454. “GATGATTGTTCTCCCAGCTGATGAATTGACTACCTCGAGTAAACAAATTTTCCTAATCTTTCTGTTCAAGCGCCATCTAC” gave a binding signal (RPM ratio (pull-down/input)) of 0.373. For “GATGATTGTTCTCCCAGCTGATGAATTGGTACCCTCGAGTAAACAAATTTTCCTAATCTTTCTGTTCAAGCGCCATCTAC”, the binding signal (RPM ratio (pull-down/input)) was 0.521. “GATGATTGTTCTCCCAGCTGATGAATTCCACGCCTCGAGTAAACAAATTTTCCTAATCTTTCTGTTCAAGCGCCATCTAC” gave a binding signal (RPM ratio (pull-down/input)) of 0.585. “GATGATTGTTCTCCCAGCTGATGAATTTACTGATTCGAGTAAACAAATTTTCCTAATCTTTCTGTTCAAGCGCCATCTAC” was tested, and the binding signal (RPM ratio (pull-down/input)) was 0.851. Work on “GATGATTGTTCTCCCAGCTGATGAATTAGATAGGTCGAGTAAACAAATTTTCCTAATCTTTCTGTTCAAGCGCCATCTAC” yielded a binding signal (RPM ratio (pull-down/input)) of 0.415. Work on “GATGATTGTTCTCCCAGCTGATGAATTTGGTTTCTCGAGTAAACAAATTTTCCTAATCTTTCTGTTCAAGCGCCATCTAC” yielded a binding signal (RPM ratio (pull-down/input)) of 2.31. Work on “GATGATTGTTCTCCCAGCTGATGAATTGGGGATATCGAGTAAACAAATTTTCCTAATCTTTCTGTTCAAGCGCCATCTAC” yielded a binding signal (RPM ratio (pull-down/input)) of 0.444. Sequence “GATGATTGTTCTCCCAGCTGATGAATTTGATGTATCGAGTAAACAAATTTTCCTAATCTTTCTGTTCAAGCGCCATCTAC” has a binding signal (RPM ratio (pull-down/input)) of 4.63. “GATGATTGTTCTCCCAGCTGATGAATTGTGTAAGTCGAGTAAACAAATTTTCCTAATCTTTCTGTTCAAGCGCCATCTAC” was tested, and the binding signal (RPM ratio (pull-down/input)) was 1.32. In the case of “GATGATTGTTCTCCCAGCTGATGAATTACTTGGTTCGAGTAAACAAATTTTCCTAATCTTTCTGTTCAAGCGCCATCTAC”, the binding signal (RPM ratio (pull-down/input)) is reported as 0.411. Sequence “GATGATTGTTCTCCCAGCTGATGAATTCGAGGCCTCGAGTAAACAAATTTTCCTAATCTTTCTGTTCAAGCGCCATCTAC” has a binding signal (RPM ratio (pull-down/input)) of 0.504. In the case of “GATGATTGTTCTCCCAGCTGATGAATTAGAGAGATCGAGTAAACAAATTTTCCTAATCTTTCTGTTCAAGCGCCATCTAC”, the binding signal (RPM ratio (pull-down/input)) is reported as 0.231. In the case of “GATGATTGTTCTCCCAGCTGATGAATTACTAGCTTCGAGTAAACAAATTTTCCTAATCTTTCTGTTCAAGCGCCATCTAC”, the binding signal (RPM ratio (pull-down/input)) is reported as 0.393. Sequence “GATGATTGTTCTCCCAGCTGATGAATTGGCTACTTCGAGTAAACAAATTTTCCTAATCTTTCTGTTCAAGCGCCATCTAC” has a binding signal (RPM ratio (pull-down/input)) of 0.418. For “GATGATTGTTCTCCCAGCTGATGAATTTACATGCTCGAGTAAACAAATTTTCCTAATCTTTCTGTTCAAGCGCCATCTAC”, the binding signal (RPM ratio (pull-down/input)) was 0.82. With “GATGATTGTTCTCCCAGCTGATGAATTGACTGTCTCGAGTAAACAAATTTTCCTAATCTTTCTGTTCAAGCGCCATCTAC” the binding signal (RPM ratio (pull-down/input)) was 0.449. Work on “GATGATTGTTCTCCCAGCTGATGAATTCGGCTCGTCGAGTAAACAAATTTTCCTAATCTTTCTGTTCAAGCGCCATCTAC” yielded a binding signal (RPM ratio (pull-down/input)) of 0.512. Work on “GATGATTGTTCTCCCAGCTGATGAATTCATTTGGTCGAGTAAACAAATTTTCCTAATCTTTCTGTTCAAGCGCCATCTAC” yielded a binding signal (RPM ratio (pull-down/input)) of 2.19. “GATGATTGTTCTCCCAGCTGATGAATTAACACCCTCGAGTAAACAAATTTTCCTAATCTTTCTGTTCAAGCGCCATCTAC” gave a binding signal (RPM ratio (pull-down/input)) of 0.385. “GATGATTGTTCTCCCAGCTGATGAATTACAGTGTTCGAGTAAACAAATTTTCCTAATCTTTCTGTTCAAGCGCCATCTAC” gave a binding signal (RPM ratio (pull-down/input)) of 0.809. “GATGATTGTTCTCCCAGCTGATGAATTTGAATGATCGAGTAAACAAATTTTCCTAATCTTTCTGTTCAAGCGCCATCTAC” showed a binding signal (RPM ratio (pull-down/input)) of 0.488. For “GATGATTGTTCTCCCAGCTGATGAATTGCGTTCCTCGAGTAAACAAATTTTCCTAATCTTTCTGTTCAAGCGCCATCTAC”, the binding signal (RPM ratio (pull-down/input)) was 1.24. Work on “GATGATTGTTCTCCCAGCTGATGAATTAGCCGGTTCGAGTAAACAAATTTTCCTAATCTTTCTGTTCAAGCGCCATCTAC” yielded a binding signal (RPM ratio (pull-down/input)) of 0.257. With “GATGATTGTTCTCCCAGCTGATGAATTAATGCTCTCGAGTAAACAAATTTTCCTAATCTTTCTGTTCAAGCGCCATCTAC” the binding signal (RPM ratio (pull-down/input)) was 1.37. “GATGATTGTTCTCCCAGCTGATGAATTCATTCCATCGAGTAAACAAATTTTCCTAATCTTTCTGTTCAAGCGCCATCTAC” was tested, and the binding signal (RPM ratio (pull-down/input)) was 0.306. With “GATGATTGTTCTCCCAGCTGATGAATTGGGCGTATCGAGTAAACAAATTTTCCTAATCTTTCTGTTCAAGCGCCATCTAC” the binding signal (RPM ratio (pull-down/input)) was 1.07. “GATGATTGTTCTCCCAGCTGATGAATTTCGTGCATCGAGTAAACAAATTTTCCTAATCTTTCTGTTCAAGCGCCATCTAC” showed a binding signal (RPM ratio (pull-down/input)) of 1.22.
